# Reference: PubChem BioAssay AID485313 (National Center for Advancing Translational Sciences (NCATS), 2010)
# The campaign covered roughly 320,000 compounds. About 7,600 (2.4%) were called active. The inconclusive results got no clear call from the source; some entries with a clear call stand among them for comparison. The call rests on the fitted dose curve; in most records, active means well fitted activation curve with a large enough effect; inconclusive means small, poorly fitted or top-dose-only effect; inactive means no such curve, though single readings can be large or run the other way. No potency is given beside an inconclusive call; the fits are too rough.
# Test: qHTS Assay for NPC1 Promoter Activators; further: nearly all actives have a fitted effect of over 60% in size
# Conditions: Huh7 NPC1 promoter luciferase reporter, 24 h; series mostly up to 9.22 µM
# Outline: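 Luminescence read-out of NPC1 promoter-driven luciferase in stably transfected Huh7 cells; compounds delivered in DMSO and left 24 h at 37C, 5% CO2, qHTS titration format.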
# Potency means the concentration at half of the fitted maximal effect; tags describe the fitted curve by direction and shape.
row,Structure (SMILES),Potency
1,Cc1cnc(NC(=O)Cc2ccccc2Cl)s1,inactive
2,COc1cc2cnc(-c3ccccc3)c(-c3ccc(C(F)(F)F)cc3)c2cc1OC,inactive
3,CC(=O)NC(CC(=O)N(Cc1ccccc1)c1cccc(C)c1)c1ccccc1 (stereo not given),inactive
4,N/C(=N\OC(=O)c1ccc(Br)cc1)c1cccc([N+](=O)[O-])c1,"inconclusive [activator, single point]"
5,CCCCC1C2C(=O)N(c3ccc(C)cc3)C(=O)C2ON1c1ccccc1 (stereo not given),"inconclusive [activator, single point]"
6,COc1ccccc1N1CCN(/N=C/c2ccc(O)cc2O)CC1,active: 2.82 µM
7,O=C(Nc1cccc(C(=O)O)c1)/C(=C\c1ccc2c(c1)OCO2)NC(=O)c1ccc(Br)cc1,inactive
8,O=c1c(O)c(-c2ccc3c(c2)OCO3)oc2ccccc12,"inconclusive [activator, single point]"
9,COc1ccc(CCC(=O)Nc2nc(-c3ccncc3)cs2)cc1,inactive
10,COc1cccc(C(=O)NCCS(=O)(=O)NCCc2ccccc2)c1,"inconclusive [activator, partial curve]"
11,Cc1nc2cc(NC(=O)c3ccc(Cl)cc3)ccc2n1C,active: 0.282 µM
12,Cc1ccc(NC(=O)Cc2nc(CSc3nnc(-c4ccc5c(c4)OCO5)o3)cs2)cc1,"inconclusive [activator, partial curve]"
13,O=C(N/N=C/c1c(F)cccc1Cl)c1cc(C2CC2)[nH]n1,"inconclusive [activator, partial curve]"
14,O=C(CSc1nnc(-c2ccco2)o1)c1ccccc1,"inconclusive [activator, partial curve]"
15,Oc1nc(Nc2ccccc2)sc1/C=C1\C=Nc2ccccc21,active: 3.98 µM
16,O=C(c1ccc(CS(=O)(=O)c2c(Cl)cccc2Cl)o1)N1CCN(c2ccccn2)CC1,inactive
17,CCCC(=O)c1ccc(N2CCCCC2)c(F)c1,"inconclusive [activator, single point]"
18,O=C1CCS/C(=N\N=C\c2ccc(Cl)cc2Cl)N1,"inconclusive [activator, single point]"
19,Cc1ccc(C(=O)c2c3ccccc3[n+]([O-])n2CCO)cc1,inactive
20,COc1cc(/C=C(\C#N)c2nc3c(s2)CCCC3)ccc1O,"inconclusive [activator, single point]"
21,Cc1ccc(OCC(=O)Nc2cccc(C)n2)c(C)c1,"inconclusive [activator, single point]"
22,Cc1cc(N)n2nc(-c3ccccc3)cc2n1,"inconclusive [activator, partial curve]"
23,COc1ccc(NC(=O)c2ccco2)c(OC)c1,"inconclusive [activator, single point]"
24,Cc1sc2nc(-c3ccco3)oc(=O)c2c1C,inactive
25,O=C(Nc1ccccc1)C(Cl)C(=O)c1ccccc1 (stereo not given),"inconclusive [activator, single point]"
26,Cc1ccc(/C=N/NC(=O)c2nn(C)cc2Cl)cc1,active: 3.55 µM
27,COC(=O)c1sc(NC(=O)c2ccco2)nc1C,inactive

row,Structure (SMILES),Potency
1,O=C(CSc1nnc(NC(=O)c2c(F)cccc2F)s1)NC1CCCCC1,inactive
2,O=C(O)c1cnn(-c2nc(-c3ccc(Cl)cc3)cs2)c1C(F)(F)F,"inconclusive [activator, single point]"
3,COc1ccc2oc(=N)c(C(=O)Nc3ccc(Br)cc3)cc2c1,"inconclusive [activator, single point]"
4,O=C1NC(=O)/C(=C\c2ccc(OCc3cccc(C(=O)O)c3)c(Cl)c2)N1,"inconclusive [activator, partial curve]"
5,CCOc1ccc(Br)cc1S(=O)(=O)N1CC(C)OC(C)C1 (stereo not given),"inconclusive [activator, single point]"
6,CNc1c(NS(=O)(=O)c2cc(Cl)ccc2OC)c(=O)oc2ccccc12,inactive
7,O=C(CCc1nnc(Cc2cccc(C(F)(F)F)c2)o1)NCCc1ccccc1F,"inconclusive [activator, single point]"
8,Cn1c(=O)c2ncn(CC(=O)Nc3cccc(-c4nc5ccccc5s4)c3)c2n(C)c1=O,active: 3.16 µM
9,COc1ccc2cc3cc(C(=O)NC4CC4)sc3nc2c1,active: 0.447 µM
10,Cc1nc(C)c(-c2csc(Nc3ccc(N)cc3)n2)s1,"inconclusive [activator, single point]"
11,Cc1c(Cl)cccc1NC(=O)c1cc(-c2ccccc2O)n[nH]1,"inconclusive [activator, partial curve]"
12,COc1ccc(NC(=O)c2ccc(Br)o2)cc1,"inconclusive [activator, single point]"
13,Cc1ccc(S(=O)(=O)N2CCOCC2)cc1C(=O)Nc1ccc2c(c1)OCCO2,inactive
14,CCN=C1NN=C(c2ccc(C)cc2)CS1,"inconclusive [activator, full curve]"
15,CCCCCC1CCC(C(=O)N2CCOCC2)CC1 (stereo not given),inactive
16,O=C(O)c1ccccc1OCc1nc2ccccc2s1,"inconclusive [activator, single point]"
17,CSc1ccccc1C(=O)N1CCc2ccccc2C1,inactive
18,COC(=O)c1ccc(/C=C/C(=O)c2ccc(OC)cc2)cc1,"inconclusive [activator, single point]"
19,Cc1nc2c(cc(Oc3ccc(S(=O)(=O)N4CCOCC4)cn3)c3ccsc32)s1,"inconclusive [activator, single point]"
20,CCOC(=O)Cc1nnc(-c2ccccc2)o1,inactive
21,Nc1c(C(=O)Nc2cccc(C(=O)O)c2)sc2nc3c(cc12)CCCC3,"inconclusive [activator, partial curve, poor fit]"
22,Cc1cccc(NC(=O)CN(CC2CCCO2)C(=O)c2oc3ccccc3c2C)c1C (stereo not given),inactive
23,COc1ccc([N+](=O)[O-])cc1NS(=O)(=O)Cc1ccccc1,inactive
24,COc1ccc(NC(=O)Nc2nnc(-c3ccco3)s2)cc1,active: 0.891 µM
25,CCOC(=O)c1ccc(NC(=O)C2CCCN(c3cnccn3)C2)cc1 (stereo not given),"inconclusive [activator, single point]"
26,O=C(Nc1ccc(Cl)cc1)Nc1cccc2nsnc12,"inconclusive [activator, single point]"
27,CCCc1nc2ccc(NC(=O)NCCC(=O)OCC)cc2c(=O)n1Cc1ccc(Cl)cc1,inactive

row,Structure (SMILES),Potency
1,COc1ccc(Cc2nc3ccc(C(=O)NCCCSC)cc3o2)cc1OC,"inconclusive [activator, single point]"
2,c1ccc(CSc2nnc(SCc3ccccn3)s2)nc1,"inconclusive [activator, single point]"
3,Cc1cc(C)cc(NC(=S)Nc2ccccn2)c1,"inconclusive [activator, single point]"
4,COC(=O)c1cccc(NC(=O)C2COc3ccccc3O2)c1 (stereo not given),"inconclusive [activator, partial curve]"
5,COc1cc2c(cc1OC)C(C)N(C(=O)CCc1c[nH]c3ccccc13)CC2 (stereo not given),inactive
6,CCC(C)c1ccccc1NC(=O)COC(=O)c1ccc2[nH]c3c(c2c1)CCCC3 (stereo not given),inactive
7,CCn1c(O)c(N=NC(=O)c2cccs2)c2ccccc21,"inconclusive [activator, single point]"
8,O=C(CS(=O)(=O)c1ccccc1)N1CCCCC1,inactive
9,CCN1CCN(C(=O)/C=C/c2ccc(C)cc2)CC1,inactive
10,COc1ccc(/C=C/C(=O)NC(=S)NNC(=O)c2cc(OC)c(OC)c(OC)c2)cc1,inactive
11,CCC(=O)Nc1cccc(NC(=S)NC(=O)c2ccccc2Cl)c1,"inconclusive [activator, partial curve]"
12,COc1ccc2c(c1)C(=O)/C(=C/C=C/c1ccccc1)CC2,"inconclusive [activator, partial curve]"
13,Cc1ccc(NC(=O)N2CCc3ccccc32)cc1C,active: 0.501 µM
14,CCCCCc1n[nH]c2c1CCCC2,inactive
15,N#Cc1cc2c(nc1SCc1ccncc1)CCC2,"inconclusive [activator, partial curve]"
16,Fc1ccc2nc(Nc3nc4c(F)cccc4s3)sc2c1,"inconclusive [activator, partial curve]"
17,O=C(NCCC1=CCCCC1)c1cnccn1,"inconclusive [activator, partial curve]"
18,COc1ccc(-n2c(C)cc(/C=C3\SC(=O)NC3=O)c2C)cc1,"inconclusive [activator, partial curve]"
19,COC(=O)c1cccc(NC(=O)c2onc3c2CCCC3)c1,active: 0.398 µM
20,CCc1ccccc1NC(=O)c1ccc(-c2csc(C)n2)cc1,active: 3.55 µM
21,CC(=O)Nc1cc(-c2nc3ccccc3o2)ccc1Cl,inactive
22,Cc1noc(C)c1COc1ccc(C(=O)NNC(=O)c2ccccc2O)cc1,inactive
23,O=C(N/N=C/c1ccsc1)c1ccccn1,active: 2.82 µM
24,O=C(Nc1ccccc1)c1ccc(NCCc2ccccc2)c([N+](=O)[O-])c1,"inconclusive [activator, partial curve]"
25,O=C(CC1Nc2ccccc2NC1=O)c1ccccc1 (stereo not given),"inconclusive [activator, single point]"
26,O=C(c1ccc(Cl)cc1)c1ccc(OCC(=O)N2CCOCC2)cc1,inactive
